Source: patent US20100048696A1, “AGRICULTURAL DISEASE CONTROL AGENT” (Idemitsu Kosan Co., Ltd., priority 2007, published 2010)

Test system: Clavibacter michiganense subsp. Nebraskense (ATCC27822)
Experiment: Basic test: cutting knife disinfection, ring rot pathogens
Assay type: cell-based
Details: cutting knife immersed 5 seconds

| Compound | Logarithm (number of ring rot pathogens) (50 times solution) [cfu] | Logarithm (number of ring rot pathogens) (2 times solution) [cfu] | Logarithm (number of ring rot pathogens) (5 times solution) [cfu] | Logarithm (number of ring rot pathogens) (25 times solution) [cfu] | Logarithm (number of ring rot pathogens) (100 times solution) [cfu] | Logarithm (number of ring rot pathogens) (200 times solution) [cfu] | Logarithm (number of ring rot pathogens) (500 times solution) [cfu] |
| --- | --- | --- | --- | --- | --- | --- | --- |
| O=C1O[C@H]([C@@H](O)CO)C(O)=C1O [Ascorbic acid, reference compound] | 9.3 |  |  |  |  |  |  |
| O=C(O)CC(O)(CC(=O)O)C(=O)O [Citric acid] | 9.3 |  |  |  |  |  |  |
| O=C(O)/C=C\C(=O)O [Maleic acid] | 3.6 | 0.0 | 0.0 | 2.0 | 4.2 | 4.5 | 5.0 |
| O=C1C=CC(=O)O1 [Maleic anhydride] | 2.4 | 0.0 | 0.0 | 1.5 | 4.0 | 4.3 | 4.7 |
| O=C(O)CC(O)C(=O)O (centres unmarked) [Malic acid, reference compound] | 9.3 |  |  |  |  |  |  |
